According to PubChem BioAssay AID624296 (National Center for Advancing Translational Sciences (NCATS), 2012):
Among all 350,000 compounds or so, about 9,900 (2.8%) were called active. Inconclusive means that the source gave no clear call. Such entries were picked first, then a sample of the others. Calls come from the whole dose curve; as a rule, active = well fitted activation curve with a large enough effect; inconclusive = small, poorly fitted or top-dose-only effect; inactive = no such curve, though single readings can be large or run the other way. Potencies of inconclusive entries are left out as doubtful fits.

Assay: A quantitative high throughput screen for small molecules that induce DNA re-replication in MCF 10a normal breast cells. Note: nearly all actives have a fitted effect of over 50% in size.
Details: MCF 10A DNA re-replication, Hoechst nuclear intensity, 48 h; series mostly up to 46.1 µM
Potency is the fitted concentration of half-maximal effect; tags give direction and shape of the fitted curve.

Row | SMILES | Potency
1 | NC(=O)c1cc(N)ccc1N1CCCCC1 | inconclusive [activator, partial curve, poor fit]
2 | Cc1sc(NC(=O)c2cccnc2)nc1-c1ccccc1 | inactive
3 | CCOP(=O)(c1ccccc1)c1nc(-c2ccc(F)cc2)oc1N1CCCCC1 (configuration not stated) | inactive
4 | Cc1cc(=O)[nH]c2c1c(C)nn2C1CCOC(C)(C)C1 (configuration not stated) | inactive
5 | CCCCCCSc1cc(-c2nc3ccc(C)cn3c2NCc2ccccc2)ccc1OC | inconclusive [activator, partial curve]
6 | Cc1ccc(CONS(=O)(=O)c2cc(C)ccc2C)cc1 | inconclusive [activator, single point]
7 | COc1cc(NC(=O)COC(=O)Cn2cnc3c2c(=O)n(C)c(=O)n3C)cc(OC)c1 | inactive
8 | CCOC(=O)C1(CCOC)CCN(Cc2ccc(C3CCCCO3)s2)CC1 (configuration not stated) | inactive
9 | COc1ccc(-c2csc(N(CC(C)C)C(=O)c3ccco3)n2)cc1 | active: 18.4 µM
10 | O=C(N/N=C/c1ccc2ncccc2c1)c1cc(-c2cccs2)nc2ccccc12 | active: 5.8 µM
11 | CC(C)c1ccc(CNc2cc(N3CCCC3)ccc2[N+](=O)[O-])cc1 | inactive
12 | Cc1ccc(-c2csc(NC(=O)c3cccs3)n2)cc1 | inconclusive [activator, single point]
13 | O=C1c2cnc3ncnn3c2CC2c3ccccc3CCN12 (configuration not stated) | inconclusive [activator, single point]
14 | CCc1ccc(OCC(=O)NCC(c2ccc(Cl)cc2)N2CCCCC2)cc1 (configuration not stated) | inconclusive [activator, single point]
15 | Cc1cc(N2CCCCCC2)nc(-c2ccccc2O)n1 | inconclusive [activator, single point]
16 | CCCCN1CC(=O)N2[C@H]3c4cc(Cl)ccc4OC[C@@H]3[C@H](C(=O)OCC)[C@]2(C)C1=O | inconclusive [activator, partial curve, poor fit]
17 | COc1ccc(-c2onc(C)c2-c2ccccc2)c(O)c1 | inconclusive [activator, single point]
18 | COc1ccc(-n2c(CNc3ccc(C)cc3)nnc2SCc2ccccc2)cc1 | inconclusive [activator, single point]
19 | COc1ccc(NC(=S)Nc2ccccc2)c(OC)c1 | inactive
20 | CC(=O)NC1=C(NC2CCS(=O)(=O)C2)C(=O)c2ccccc2C1=O (configuration not stated) | inconclusive [activator, single point]
21 | CN(C)c1nc(-c2ccccc2)nc(-c2ccc(Cl)cc2)c1C#N | inconclusive [activator, partial curve, poor fit]
22 | Cc1ccc[n+](CC(=O)c2ccc(NC(=O)c3ccccc3)cc2)c1C | inconclusive [activator, partial curve, poor fit]
23 | O=C(COc1ccc([N+](=O)[O-])cc1)NC(=O)NC1CCS(=O)(=O)C1 (configuration not stated) | inactive
24 | N=C(N)n1cccn1 | inactive

Row | SMILES | Potency
25 | O=C(CN1C(=O)c2cccc3cccc(c23)C1=O)N1CCN(Cc2ccc3c(c2)OCO3)CC1 | inconclusive [activator, partial curve, poor fit]
26 | CN(C)CCN(C)Cc1ccccc1Sc1cccc2ccccc12 | inconclusive [activator, partial curve, poor fit]
27 | Cc1ccc(S(=O)(=O)Oc2ccccc2/C=C2\SC(=O)NC2=O)cc1 | inactive
28 | COc1ccc(-c2c(-c3cc(OC)cc(OC)c3)n(C)c3ccc(-c4ccn[nH]4)cc23)cc1 | inconclusive [activator, partial curve, poor fit]
29 | Cc1nnsc1S(=O)c1ccc(F)cc1 (configuration not stated) | inactive
30 | CCc1ccc(NC(=O)C2CCCN(S(=O)(=O)c3cccnc3)C2)cc1 (configuration not stated) | inconclusive [activator, partial curve, poor fit]
31 | COc1ccc(/C=C/C(=O)c2c(C)cc(C)[nH]c2=O)c2ccccc12 | active: 18.4 µM
32 | CCCCN(CC(=O)NCc1ccc(Cl)cc1)S(=O)(=O)c1ccc2c(c1)OCCO2 | inconclusive [activator, partial curve, poor fit]
33 | O=C(Cn1cc([N+](=O)[O-])cn1)Nc1ccccn1 | inactive
34 | Cc1ccc(S(=O)(=O)N(CC(=O)N2CCC(C)CC2)Cc2ccccc2F)cc1 | inconclusive [activator, partial curve, poor fit]
35 | Cc1ccccc1NC(=S)NC(=O)COc1ccccc1C | inactive
36 | COc1cc(-c2cc(C(=O)Nc3ccc(S(=O)(=O)NCc4ccco4)cc3)c3ccccc3n2)cc(OC)c1OC | inconclusive [activator, partial curve, poor fit]
37 | O=[N+]([O-])c1ccc(N/N=C/c2sc(N3CCOCC3)nc2-c2ccccc2)c(S(=O)(=O)Nc2ccccc2Cl)c1 | inactive
38 | CN1CCN(c2nc(-c3cccs3)nc3ccccc23)CC1 | inconclusive [activator, partial curve, poor fit]
39 | Cn1cccc1C(=O)OCC(=O)Nc1sccc1C#N | inactive
40 | CCCCC(=O)Nc1nnc(S(=O)(=O)N2CCCCCC2)s1 | inactive
41 | COC(=O)[C@H]1C[C@H]1[C@@H](NC(=O)c1ccc[nH]1)c1ccccc1 | inconclusive [activator, partial curve, poor fit]
42 | CCC(C)NCCOCCOc1ccc(Cl)c2ccccc12 (configuration not stated) | inconclusive [activator, single point]
43 | O=C1C=CC(=C(c2ccc(O)cc2)c2ccc(O)cc2)C=C1 | active: 6.51 µM
44 | O=C1c2ccccc2C(Nc2ccccc2)N1Cc1ccc2c(c1)OCO2 (configuration not stated) | inconclusive [activator, single point]
45 | Cc1ccc(Cc2nnc3n(-c4ccccc4)nc(C(=O)c4ccccc4)n3c2=O)cc1 | active: 16.4 µM
46 | O=C(NC1CCN(Cc2ccc(Cl)cc2)CC1)c1cn(-c2ccccc2)nc1-c1cccnc1 | active: 20.6 µM
47 | COc1cc(Cl)ccc1OCc1cc(C(=O)N2CC[C@@H]3CCCC[C@H]3C2)no1 | active: 16.4 µM
48 | COc1ccc(-n2c(SCC(C)=O)nc3sc(C)c(C)c3c2=O)cc1 | inactive

Row | SMILES | Potency
49 | CCC(=O)Nc1ccc(N2CCCCC2)cc1 | inactive
50 | CN(Cc1ccccc1F)c1nc(-c2cccs2)nc2ccccc12 | active: 13 µM
51 | COc1ccc(Cc2nnc(Nc3ccccc3OC)[nH]c2=O)cc1 | inconclusive [activator, single point]
52 | Oc1ccc(-c2nc3ccccc3nc2-c2ccc(O)cc2O)c(O)c1 | inconclusive [activator, partial curve, poor fit]
53 | Cc1ccc(Cl)cc1N1CCN(S(=O)(=O)c2c(C)[nH]c(C)c2C(=O)N2CCCCC2)CC1 | inconclusive [activator, partial curve, poor fit]
54 | COc1nc(NCCc2ccc(OC)c(OC)c2)nc(OC)n1 | inactive
55 | CCSc1ccccc1C(=O)n1nnc2ccccc21 | active: 15.8 µM
56 | Cc1ccc(N2C(=O)SC(Cc3ccccc3)C2=O)cc1 (configuration not stated) | inconclusive [activator, single point]
57 | CC(C)CCNC(=O)CCCOc1cc(=O)n(C)c2ccccc12 | inconclusive [activator, partial curve, poor fit]
58 | CN(C)/C=C/C(=O)c1ccc2noc(-c3cccc(F)c3)c2c1 | inconclusive [activator, single point]
59 | CC(Oc1cccc(Cl)c1)C(=O)Nc1cc(S(=O)(=O)N2CCOCC2)ccc1N1CCCCC1 (configuration not stated) | active: 13 µM
60 | O=C(c1ccc2ccccc2c1)C1CCCN(C(=O)c2noc3c2CCCC3)C1 (configuration not stated) | inconclusive [activator, single point]
61 | CC1CCCCN1C(=O)c1cc(-c2ccc(Cl)c(Cl)c2)on1 (configuration not stated) | inconclusive [activator, partial curve, poor fit]
62 | Cc1c(C(=O)N2CCN(c3ncccn3)CC2)oc2ccc(F)cc12 | inconclusive [activator, single point]
63 | CCOC(=O)N1CCN(c2c(NCc3ccccc3Cl)c(=O)c2=O)CC1 | inconclusive [activator, single point]
64 | O=c1c2ccccc2nc(SCc2nc3ccccc3s2)n1Cc1ccco1 | inconclusive [activator, single point]
65 | O=C(CSc1c2c(nc3ccc(Cl)cc13)CCCC2)NCc1ccco1 | inconclusive [activator, single point]
66 | O=C(CSc1nnc(-c2ccc(O)cc2)o1)Nc1ccccc1 | inactive
67 | Cn1cccc1C1C=C(c2ccc(C(C)(C)C)cc2)Nc2ncnn21 (configuration not stated) | inconclusive [activator, partial curve, poor fit]
68 | Cc1cccc(CC(Cc2nc3ccccc3[nH]2)c2nc3ccccc3[nH]2)c1 (configuration not stated) | inconclusive [activator, single point]
69 | CCN(CC)CCCNc1oc(/C=C/c2ccccc2)nc1C#N | inconclusive [activator, full curve, poor fit]
70 | Fc1ccc(CNc2nc(-c3ccco3)cc(C(F)(F)F)n2)cc1 | inconclusive [activator, partial curve, poor fit]
71 | Cc1cccc(N2CCN(C(=O)c3ccc4ncsc4c3)CC2)c1C | active: 9.2 µM
72 | CCCCn1c(SCC(=O)NCCOC)nc2ccc(N3CCOCC3)cc2c1=O | inactive
